In the supplement of paper PMC9446081 one finds relative growth data, which are given here for 38 compounds.

SMILES strings stand for the structures. Among all 39,000 compounds or so, about 220 (0.56%) showed activity. The list shows a part of the results.
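Also: static incubation at 37 °C against the wild-type strain, values averaged over two biological replicates.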

The subject of this experiment is Escherichia coli K-12 BW25113. Description: relative growth (OD600 normalised to plate interquartile mean) (fraction); higher = less growth inhibition, active = 0.2 or less. The note with it: 50 µM; LB; incubation time: overnight (16-24 h).
With `Cc1noc(C)c1NC(=O)Nc1ccc2c(c1)C(=O)N([C@@H](C)CO)C[C@H](C)[C@H](CN(C)Cc1ccc(C(=O)O)cc1)OCCCC[C@H](C)O2`, the relative growth is inactive: 1.01.
As to `COc1ccc(NC(=O)N(C)C[C@@H]2OCCCC[C@@H](C)Oc3ccc(NS(=O)(=O)c4ccc(C)cc4)cc3C(=O)N([C@H](C)CO)C[C@H]2C)cc1`, the relative growth was inactive: 1.01.
Next, `O=C(C[C@@H]1C=C[C@@H](NC(=O)Cc2ccccn2)[C@H](CO)O1)NCCCN1CCOCC1`: inactive: 0.906.
For the compound `C[C@@H]1CCCCO[C@H](CN(C)C(=O)CCC(F)(F)F)[C@H](C)CN([C@@H](C)CO)C(=O)c2cc(NS(=O)(=O)c3ccccc3)ccc2O1`, the relative growth is inactive: 0.994.
Next, `CC(C)NC(=O)N(C)C[C@H]1Oc2c(NS(=O)(=O)c3ccccc3)cccc2C(=O)N([C@H](C)CO)C[C@H]1C`: inactive: 0.94.
The result for `CN(C)C(=O)c1cccc(-c2cccc(-c3nc(C(=O)N4CCCCC4)cc4c3[C@@H](CCO)N([S@](=O)C(C)(C)C)C4)c2)c1` reads inactive: 1.03; that for `CO[C@H]1CN(C)C(=O)c2ccc(NC(=O)CC(F)(F)F)cc2OC[C@H](C)N(C(=O)C2CCOCC2)C[C@H]1C`, inactive: 0.992; that for `C[C@@H]1CCCCO[C@@H](CN(C)S(=O)(=O)c2ccc(F)cc2)[C@H](C)CN([C@@H](C)CO)C(=O)c2cc(NC(=O)Nc3ccc(F)cc3)ccc2O1`, inactive: 1.04.
Next, `O=C(NO)c1ccc(C(=O)N/N=C/[C@H](O)[C@@H](O)[C@H](O[C@@H]2O[C@H](CO)[C@H](O)[C@H](O)[C@H]2O)[C@H](O)CO)cc1`: inactive: 0.996; `C[C@@H]1CN([C@H](C)CO)C(=O)c2cccc(NC(=O)c3cnccn3)c2O[C@H]1CN(C)S(C)(=O)=O`: inactive: 0.968; `COCCNC(=O)C[C@H]1CC[C@H](NS(=O)(=O)c2ccc(C)cc2)[C@@H](CO)O1`: inactive: 1.03.
Consider `C[C@@H]1CN([C@H](C)CO)C(=O)c2cc(NS(=O)(=O)c3ccc(Cl)cc3)ccc2O[C@@H](C)CCCCO[C@@H]1CN(C)Cc1ccc2c(c1)OCO2`, for which the relative growth was inactive: 0.958.
The result for `O=C(CN1CCS(=O)(=O)CC1)NS(=O)(=O)c1ccccc1` reads inactive: 1.02; that for `C[C@@H]1CN([C@@H](C)CO)C(=O)Cc2cc(NC(=O)c3ccncc3)ccc2O[C@H]1CN(C)C(=O)NC1CCCCC1`, inactive: 1.01.
The result for `C[C@H]1CN([C@@H](C)CO)C(=O)c2cc(C#CCN(C)C)cnc2O[C@H]1CN(C)C(=O)c1cnccn1` reads inactive: 1; that for `Cc1noc(C)c1S(=O)(=O)N(C)C[C@H]1OCc2cn(nn2)CCCC(=O)N([C@H](C)CO)C[C@H]1C`, inactive: 1; that for `CC(C)NC(=O)Nc1ccc2c(c1)C(=O)N(C)[C@@H]1CC[C@@H](CC(=O)NCc3ccc(F)cc3)O[C@@H]1CO2`, inactive: 0.981.
For the compound `O=C(C[C@@H]1CC=CCC[C@@H](Cc2ccc(F)cc2)C(=O)OC[C@@H](Cc2c[nH]c3ccccc23)NC1=O)N[C@H](CO)Cc1ccccc1`, the relative growth was inactive: 1.04.
On to `COc1ccc(CN(C)C[C@H]2Oc3ccc(NC(=O)C4CC4)cc3CC(=O)N([C@@H](C)CO)C[C@H]2C)cc1`, for which the relative growth is inactive: 1.
The result for `CN1CCN(C(=O)C[C@H]2C=C[C@@H](NC(=O)Cc3ccccn3)[C@@H](CO)O2)CC1` reads inactive: 0.986.
The result for `Cc1noc(C)c1S(=O)(=O)Nc1ccc2c(c1)CC(=O)N([C@H](C)CO)C[C@H](C)[C@@H](CN(C)S(C)(=O)=O)O2` reads inactive: 1; that for `C[C@@H]1CN([C@H](C)CO)C(=O)c2cc(NS(C)(=O)=O)ccc2O[C@H]1CN(C)S(=O)(=O)c1ccc(F)cc1`, inactive: 1.01.
Turning to `C[C@@H]1CN([C@H](C)CO)C(=O)c2cc(NS(=O)(=O)c3ccc(F)cc3)ccc2O[C@H]1CN(C)Cc1ccc(Cl)c(Cl)c1`, the relative growth is inactive: 1.01.
Next, `C[C@@H]1CCCCO[C@@H](CN(C)CC2CC2)[C@@H](C)CN([C@H](C)CO)C(=O)c2cc(NS(=O)(=O)c3ccc(Cl)cc3)ccc2O1`: inactive: 0.989; `C[C@H](CO)N1C[C@H](C)[C@@H](CN(C)Cc2ccc3c(c2)OCO3)Oc2ccc(NC(=O)Nc3ccc(C(F)(F)F)cc3)cc2C1=O`: inactive: 0.852; `CCS(=O)(=O)N1CCCn2c(nc(Cn3cncn3)cc2=O)C1`: inactive: 0.985.
The result for `NC(=S)NCc1ccco1` reads inactive: 1.01.
The result for `COc1ccc(CN(C)C[C@@H]2OCCCC[C@@H](C)Oc3ccc(NC(=O)Nc4c(C)noc4C)cc3C(=O)N([C@H](C)CO)C[C@@H]2C)cc1` reads inactive: 0.995; that for `C[C@H]1CN([C@@H](C)CO)C(=O)c2cc(NC(=O)C3CCCCC3)ccc2O[C@@H]1CN(C)Cc1ccc(Oc2ccccc2)cc1`, inactive: 0.972; that for `C[C@@H]1CCCCO[C@@H](CN(C)C(=O)Nc2ccc(F)cc2)[C@@H](C)CN([C@@H](C)CO)C(=O)c2cc(NC(=O)Nc3ccc(F)cc3)ccc2O1`, inactive: 1.01.
Regarding `O=c1[nH]c2cc(C(F)(F)F)c(N3CCOCC3)cc2n(CP(=O)(O)O)c1=O`, the relative growth was inactive: 1.03.
The result for `Cc1noc(C)c1S(=O)(=O)Nc1ccc2c(c1)C(=O)N([C@H](C)CO)C[C@@H](C)[C@H](CN(C)CC1CC1)O2` reads inactive: 1.01; that for `COc1ccc(-c2cc(=O)c3c(OC)c(OC)c(OC)c(OC)c3o2)cc1`, inactive: 0.933; that for `O=c1ncccn1[C@H]1O[C@H](CO)[C@@H](O)[C@@H]1O`, inactive: 0.636.
The result for `C[C@@H]1CCCCO[C@H](CN(C)C(=O)C2CCCCC2)[C@@H](C)CN([C@@H](C)CO)C(=O)c2cc(NC(=O)Nc3ccccc3)ccc2O1` reads inactive: 1.01; that for `C[C@@H]1CN([C@H](C)CO)C(=O)c2cc(NC(=O)Nc3cccc4ccccc34)ccc2O[C@H]1CN(C)Cc1ccc(C(=O)Nc2ccccc2N)cc1`, inactive: 0.997; that for `C[C@H]1CN([C@@H](C)CO)C(=O)Cc2cc(NC(=O)c3ccncc3)ccc2O[C@H]1CN(C)Cc1ccc(C(=O)O)cc1`, inactive: 0.959.
The result for `CN[C@@H]1[C@H](O[C@H]2[C@H](O[C@@H]3[C@@H](O)[C@H](O)[C@@H](NC(=N)N)[C@H](O)[C@H]3NC(=N)N)O[C@@H](C)[C@]2(O)CO)O[C@@H](CO)[C@H](O)[C@H]1O.CN[C@@H]1[C@H](O[C@H]2[C@H](O[C@@H]3[C@@H](O)[C@H](O)[C@@H](NC(=N)N)[C@H](O)[C@H]3NC(=N)N)O[C@@H](C)[C@]2(O)CO)O[C@@H](CO)[C@H](O)[C@H]1O` reads active: 0.11.
